According to PubChem BioAssay AID1159614 (National Center for Advancing Translational Sciences (NCATS), 2016):
Among all 45,000 compounds or so, about 65 (0.1%) were called active. Calls follow the shape of the dose curve; as a rule, active = well fitted activation curve with a large enough effect; inconclusive = small, poorly fitted or top-dose-only effect; inactive = no such curve, though single readings can be large or run the other way. The list shows a part of the results.

Target: Galactocerebrosidase (Homo sapiens) (UniProt P54803)
Experiment: A Novel Cell-Based Assay to Identify Small Molecules for B -Galactocerebrosidase; also: 0% is about no effect; nearly all actives have a fitted effect of over 65% in size
Conditions: 145M-Twi-hGALC-G270D cells, HMU-beta-Gal fluorescence, 48 h; series mostly up to 57.5 µM; activation: at the top concentration
Procedure, shortened: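 qHTS, 1536-well; 145M-Twi-hGALC-G270D cells (WT line also made) in DMEM/F12 + 10% FBS; compound incubation on live cells; HMU-β-gal 0.1 mM final, pH 5.2, NaTC; carbonate stop; fluorescence increase = enhanced residual activity.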

UniProt P54803, sequence (P54803 whole entry, looked up): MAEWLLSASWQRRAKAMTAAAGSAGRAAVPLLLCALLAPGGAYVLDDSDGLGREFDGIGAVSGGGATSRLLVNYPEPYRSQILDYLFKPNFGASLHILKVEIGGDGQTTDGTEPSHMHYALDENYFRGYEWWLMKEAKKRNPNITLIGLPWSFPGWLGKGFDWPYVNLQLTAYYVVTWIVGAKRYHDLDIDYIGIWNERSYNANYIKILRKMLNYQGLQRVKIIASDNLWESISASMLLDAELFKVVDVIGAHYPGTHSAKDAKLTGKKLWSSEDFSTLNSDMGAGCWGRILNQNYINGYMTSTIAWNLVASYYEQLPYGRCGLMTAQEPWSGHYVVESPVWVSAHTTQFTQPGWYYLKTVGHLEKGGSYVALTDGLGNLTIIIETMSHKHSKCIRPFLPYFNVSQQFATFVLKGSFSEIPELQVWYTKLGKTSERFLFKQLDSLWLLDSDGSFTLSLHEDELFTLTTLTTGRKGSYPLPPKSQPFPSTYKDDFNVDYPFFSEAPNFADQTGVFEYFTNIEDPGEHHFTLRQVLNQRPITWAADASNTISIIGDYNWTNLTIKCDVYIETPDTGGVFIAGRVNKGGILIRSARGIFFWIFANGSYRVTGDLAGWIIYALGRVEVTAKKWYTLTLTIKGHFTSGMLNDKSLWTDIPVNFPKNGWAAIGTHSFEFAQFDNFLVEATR

activation, inactive:
COc1ccc(-c2cc(C(F)(F)F)n3nc(C(=O)Nc4cc(C)ccc4C)cc3n2)cc1 -24.1%
Cc1ccc2c(c1)c1c3n2CCN(C(=O)c2ccc(C(F)(F)F)cc2)C3CCC1 (stereo unspecified) -10.1%
COc1ccc(OCC(=O)Nc2ccc3nn(-c4ccc(OC)cc4)nc3c2)cc1 -23%
CCNC(=O)c1cc2n(n1)CCCN(Cc1ccc(C)cc1)C2=O 2.77%
COc1ccc(CCNC(=O)c2cc3c(=O)oc4ccc(C)cc4c3s2)cc1OC -4%
Cc1nn(C(=O)c2cccc(F)c2)c(C)c1S(=O)(=O)N1CCOCC1 -12.9%
O=C(C1CCN(c2ncnc3c2nc2n3CCCCC2)CC1)N1CCN(c2ccc(Cl)cc2)CC1 -6.85%
CCOC(=O)c1sc2ccccc2c1S(=O)(=O)N1CCN(c2cc(C)ccc2C)CC1 -5.1%
O=C1Cc2cc(Cl)ccc2N1 -10.9%
Cc1ccccc1NC(=O)Cn1nnc(C(=O)NCCc2ccccc2)c1N -6.89%
O=C(NC1CCCCC1)c1ccc(CSc2nc3ccncc3n2Cc2ccc(F)cc2)cc1 -16.8%
CCc1nn2c(=O)c(S(=O)(=O)Nc3ccc(Br)cc3F)c(C)nc2s1 -21.8%
Cc1ccc(NC(=O)c2c(NC(=O)c3ccccc3Cl)sc3c2CCC3)cc1 -13.3%
COc1ccccc1CNc1nc2c(S(=O)(=O)c3ccccc3)nnn2c2ccc(Cl)cc12 1.38%
COc1ccc(Nc2cc(C(=O)NC3CCCC3)c3ccccc3n2)cc1 -15.1%
COc1ccc(C2C=C(c3ccc(Br)cc3)Nc3nnnn32)c(OC)c1 (stereo unspecified) -24.8%
CS(=O)(=O)N1CCc2cc(C(=O)N3CCN(c4ccccc4F)CC3)ccc21 -14.1%
O=C(CCSCc1ccc(Cl)cc1)NCc1ccc(F)cc1Cl -5.95%
CN1CCN(C(=O)Cn2ncc3c4ccccc4n(Cc4ccc(Cl)cc4)c3c2=O)CC1 -7.43%
Cc1cc(C)c(NC(=O)c2c(C)nn(-c3ccc(F)cc3)c2-n2cccc2)c(C)c1 -25.3%
O=C(CSc1nccn1Cc1ccc(F)cc1)NCc1ccc(F)cc1 -15.1%
CSc1nc(=O)c2c(n1C)NC(=O)CC2c1cc(F)cc(F)c1 (stereo unspecified) -11.3%
Cc1ccc2nc(Cl)c3cc(C(=O)NCCCN(C)Cc4ccccc4)sc3c2c1 -8.25%
CC(=O)c1cccc(NC(=O)Cn2nc(C(F)(F)F)c3c2CCC3)c1 -5.93%
NC(=O)c1nn2c(C(F)(F)F)cc(-c3ccc(Br)cc3)nc2c1Cl -11.4%
COc1ccc(C2C(C(=O)Nc3ccc(C)cc3C)=C(C)Nc3nc(SCc4cccc(C)c4)nn32)c(OC)c1 (stereo unspecified) -11.2%
CC(C)(C)CC(C)(C)c1ccc(OCC(=O)Nc2ccc(S(=O)(=O)Nc3ncccn3)cc2)cc1 -14.4%
Cc1ccc(C)c(N(C)C(=O)Cc2c(C(=O)O)[nH]c3ccc(Cl)cc23)c1 -3.09%
CC1=C(C(=O)Nc2ccc(C)cc2C)C(c2ccc(Br)cc2)n2ncc(C(=O)Nc3cccc(C)c3)c2N1 (stereo unspecified) -3.93%
COc1ccccc1CNC(=O)CSc1nc(=O)[nH]c2c1CCC2 -1.63%
CN(C)c1ccc(Nc2nc3ccccc3n3nnnc23)cc1 -20.4%
COc1ccccc1-c1nn2c(=O)cc(CN3CCN(C(=O)/C=C/c4ccccc4)CC3)nc2s1 -6.15%
COc1cccc(CNC(=O)CN2C(=O)N(c3cccc(Cl)c3)S(=O)(=O)c3ccccc32)c1OC -11.3%
CCN(CC)c1ccc(-n2nc3cc(C)c(NC(=O)c4ccccc4C)cc3n2)c(C)c1 -19.2%
CCOc1ccc(NC(=O)Cn2c(=O)n(CCCCC(=O)NCc3ccc4c(c3)OCO4)c(=O)c3ccccc32)cc1 -10%
CCCCCn1c(CNC(=O)c2ccccc2)nc2ccccc21 -16.8%
CCc1ccc(S(=O)(=O)NCc2nc3cccnc3n2Cc2cccc(OC)c2)cc1 -8.13%
Cc1c(Cl)cccc1Nc1nn2c(=O)c3ccc(C(=O)NCCC4=CCCCC4)cc3nc2s1 -1.33%
Cc1cc(C)c(S(=O)(=O)N2CCN(Cc3ccc4c(c3)OCO4)CC2)cc1C -20.8%
CCOC(=O)C1=C[C@]2(CC)CCCN3CCc4c(n1c1ccccc41)[C@@H]32 -11.8%
COc1ccc(S(=O)(=O)c2nnn(-c3ccc(C(C)C)cc3)c2C)cc1 -14.4%
Cc1ccccc1Cn1c(=O)n(CC2CCC(C(=O)N3CCOCC3)CC2)c(=O)c2sccc21 (stereo unspecified) -9.81%
CCOc1ccccc1NS(=O)(=O)c1ccc(N2CCCCS2(=O)=O)cc1 -3.81%
O=C(NCCc1csc(-c2ccc(C(F)(F)F)cc2)n1)C(=O)Nc1ccc(F)c(Cl)c1 -3.79%
CCOC(=O)c1c(N)n(-c2ccc(CC)cc2)c2nc3ccccc3nc12 -4.09%
CC(=O)Nc1ccc(C)cc1-c1nc2ccccc2n(CC(=O)c2ccc(C)c(C)c2)c1=O -14.6%
CN1CCN(c2nc3c(S(=O)(=O)c4ccc(Cl)cc4)nnn3c3ccsc23)CC1 -14.9%
COc1ccc(S(=O)(=O)n2nc(C)c(S(=O)(=O)N3CCCCCC3)c2C)cc1C -5.56%
CC(=O)N1CCOc2cc(S(=O)(=O)NCc3ccccc3Cl)c(Cl)cc21 -15.3%
CCc1ccc(NC(=O)Cn2c(=O)n(-c3ccccc3C)c(=O)c3c2c2cc(OC)ccc2n3C)cc1 4.13%
COc1ccc(NC(=O)CSc2nc3ccccc3nc2N2CCCCC2)cc1 -14.6%
O=C(CN1C(=O)CSc2ccc(S(=O)(=O)N3CCOCC3)cc21)NCCCN1CCCCC1 -13.2%
Cc1ccc(C)c(NC(=O)Cn2c(SCC(=O)NCc3ccccc3)nc3ccccc32)c1 -19%
Cc1nc(-c2ccc(F)cc2)sc1CCNC(=O)c1cccs1 -3.86%
Cc1ccc(N(CC(=O)N2CCN(c3ccccc3)CC2)S(=O)(=O)c2c(C)noc2C)cc1 -13.2%
CC(C)CCCC(C)CCCC(C)CCCCC(C)CCCC(C)CCCC(C)C (stereo unspecified) -12.3%
CCOc1ccc(N(CC(=O)Nc2ccc(OC)cc2)S(=O)(=O)c2ccc(Cl)cc2)cc1 6.46%
CC(C)Oc1ccc(C(=O)NCC(c2ccc(N(C)C)cc2)N2CCc3ccccc32)cc1 (stereo unspecified) -14.8%
Cc1ccc(-c2noc(-c3nnn(CC(=O)Nc4ccc(C)c(Cl)c4)c3N)n2)cc1 -12%
CCOC(=O)c1ccccc1NC(=O)N1CCC(CN2CCOCC2)CC1 -7.32%
CCOC(=O)c1[nH]c2c(c1Cc1ccccc1)C(=O)CC(c1ccccc1)C2 (stereo unspecified) -27.1%
CCOc1ccc(NC(=O)Cn2nc3c(cc2=O)CC(C)CC3)cc1 (stereo unspecified) -1.47%
CCN1CCN(C(c2ccccc2Cl)c2sc3nc(-c4ccco4)nn3c2O)CC1 (stereo unspecified) 1.27%
Cc1ccc2c(c1)cc1c(=O)n(Cc3ccccc3Cl)nc(C)n12 -11%
O=C(CCSCCc1ccccn1)Nc1ccc(Cl)cc1 -6.87%
Cc1ccc2c(C)c(C(=O)N(Cc3ccc(N(C)C)cc3)Cc3ccco3)oc2c1C -15.7%
O=C(Nc1ccc(Br)cc1)c1cc(S(=O)(=O)NC2CCCC2)ccc1F -12%
CCN(c1ccccc1)S(=O)(=O)c1nnc(NC(=O)C2CCCCC2)s1 -8.05%
COc1ccc2c(c1)c(N1CCCC1=O)c(C(=O)Nc1cc(C)c(Cl)cc1OC)n2C -23%
CCn1c(=O)c2sccc2n2c(CCC(=O)Nc3ccc(F)cc3)nnc12 -2.83%
COc1cc(-n2c(=O)c3ccccc3n(Cc3cccc(Cl)c3)c2=O)cc(OC)c1OC -1.4%
CCOC(=O)c1c(C)[nH]c(CCC(=O)NCc2cc(OC)c(OC)c(OC)c2)c1C -13.1%
Cc1cc2oc(=O)c(CC(=O)O)c(C)c2c2occ(-c3ccccc3)c12 -20.3%
Cc1ccc(C)c(Cn2c(=O)n(-c3ccccc3)c(=O)c3c4c(sc32)CCCC4)c1 0.156%
COc1ccc(CCN2C(=O)N(c3cccc(OC)c3)C(=O)C2CC(=O)Nc2ccccc2)cc1 (stereo unspecified) -16.5%
COc1ccc(-c2onc(C)c2C)cc1S(=O)(=O)NCCc1ccccc1 9.41%
Oc1c(C(c2ccccc2)N2CCCC2)sc2nc(-c3ccco3)nn12 (stereo unspecified) -9.59%
CCOC(=O)Cc1ccc(NC(=O)NC(C)c2c(-n3cccc3)sc(C)c2C)cc1 (stereo unspecified) -0.955%
CCNC(=O)CC1C(=O)N(c2ccc(C)cc2)C(=O)N1CCOC (stereo unspecified) 0.748%
COc1ccc(CNC(=O)CN2C(=O)CCn3nc(-c4cn(C)c5ccccc45)cc32)cc1 -16.1%
COc1nnc(-c2ccc(N3CCCCC3)c(NC(=O)c3ccc(C)cc3)c2)c2ccccc12 -0.188%
O=C(c1cccc([N+](=O)[O-])c1)N1CCN(c2ccc(Nc3ccccc3)nn2)CC1 -9.23%
CCOC(=O)c1c(S(=O)(=O)N2CCC(C(=O)Nc3ccc(C)c(Cl)c3)CC2)c(C)n(C)c1C -5.36%
CC[N+](CC)(CC)CCOC(=O)C(C1CCCC1)C1CCCC1 -6.38%
O=C(c1ccc2c(c1)N(Cc1cccc(Cl)c1)C(=O)c1ccccc1S2=O)N1CCC(Cc2ccccc2)CC1 (stereo unspecified) -17.6%
COc1ccc(OC)c(NC(=O)CSC2=Nc3ccccc3C3=NC(CC(=O)NCCc4ccccc4)C(=O)N23)c1 (stereo unspecified) -11%
CCOc1cccc(CNCCCSc2nnnn2C)c1 -10.9%
CCOc1ccc(NC(=O)CCCn2c(C)c3cnn(-c4ccccc4)c(=O)c3c2C)cc1 -13.8%
CCn1nc(C)c2c(-c3ccccc3)cc(=O)n(C(C)C(=O)NCCc3ccc(Cl)cc3)c21 (stereo unspecified) -18.1%
O=S(=O)(c1ccc(-c2cnc(C3CC3)o2)cc1)N1CCN(c2ccc(F)cc2)CC1 -17.1%
COc1cc(NC(=O)C2CCN(c3cnccn3)CC2)cc(OC)c1 -9.75%
O=C(Cn1c(=O)n(Cc2ccco2)c(=O)c2oc3ccccc3c21)Nc1ccccc1 -12.3%
COc1cccc(-c2cn3c(n2)sc2cc(C(=O)NC4CCCCC4)ccc23)c1 -22%
CCN(CCCNC(=O)c1cc2c(=O)n(C)c3ccccc3c2s1)c1ccccc1 -7.42%
CCc1ccccc1Nc1nn2c(=O)c3ccc(C(=O)NC(C)C)cc3nc2s1 -12.6%
COc1ccccc1NC(=O)CN1C(=O)C(c2ccc(F)cc2)=NC12CCCCC2 -13.3%
